Data on 25 molecules can be found in PMC4336329 (PLoS ONE, 2015).

Molecules are shown by their SMILES. Hit rate of the full screen: of about 310,000 compounds, about 2,200 (0.71%) showed an effect of 50% or more. The effect is printed as a negative number. The list shows a part of the results.

For the assay, the target named is human ether-à-go-go-related gene (hERG) potassium channel (human, UniProt Q12809). The assay is described as follows: primary screen, population patch clamp on CHO cells stably expressing hERG.
human ether-à-go-go-related gene (hERG) potassium channel, sequence (Q12809 whole entry, looked up): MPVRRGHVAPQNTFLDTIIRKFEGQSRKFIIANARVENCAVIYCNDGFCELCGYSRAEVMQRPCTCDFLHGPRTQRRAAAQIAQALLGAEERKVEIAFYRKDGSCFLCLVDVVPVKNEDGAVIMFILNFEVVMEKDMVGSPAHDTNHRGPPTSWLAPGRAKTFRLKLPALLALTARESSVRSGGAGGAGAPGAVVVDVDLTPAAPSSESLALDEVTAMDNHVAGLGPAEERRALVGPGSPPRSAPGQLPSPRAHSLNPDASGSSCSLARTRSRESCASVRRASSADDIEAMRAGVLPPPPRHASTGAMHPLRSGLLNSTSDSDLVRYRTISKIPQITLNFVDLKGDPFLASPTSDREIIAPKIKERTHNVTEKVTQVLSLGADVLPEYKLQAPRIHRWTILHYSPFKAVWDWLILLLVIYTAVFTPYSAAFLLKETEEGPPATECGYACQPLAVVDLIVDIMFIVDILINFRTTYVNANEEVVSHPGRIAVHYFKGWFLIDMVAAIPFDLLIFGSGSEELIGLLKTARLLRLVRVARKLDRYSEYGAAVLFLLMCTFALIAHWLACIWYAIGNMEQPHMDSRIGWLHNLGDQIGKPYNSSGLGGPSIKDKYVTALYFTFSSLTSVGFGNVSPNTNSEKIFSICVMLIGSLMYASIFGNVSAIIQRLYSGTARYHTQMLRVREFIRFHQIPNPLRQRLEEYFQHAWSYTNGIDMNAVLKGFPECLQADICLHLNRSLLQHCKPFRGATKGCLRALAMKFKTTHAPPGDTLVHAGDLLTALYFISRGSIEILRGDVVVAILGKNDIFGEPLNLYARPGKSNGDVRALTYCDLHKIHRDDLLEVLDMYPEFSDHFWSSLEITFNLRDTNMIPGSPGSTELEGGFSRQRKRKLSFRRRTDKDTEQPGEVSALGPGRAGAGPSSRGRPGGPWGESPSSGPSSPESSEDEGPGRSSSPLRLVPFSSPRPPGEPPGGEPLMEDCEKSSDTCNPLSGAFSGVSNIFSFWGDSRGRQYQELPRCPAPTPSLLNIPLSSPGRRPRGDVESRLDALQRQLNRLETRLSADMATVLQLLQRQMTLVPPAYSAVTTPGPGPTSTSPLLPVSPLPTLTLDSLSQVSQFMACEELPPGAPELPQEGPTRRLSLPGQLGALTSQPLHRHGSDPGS
Regarding `O=C(CCc1nc2ccccc2c(=O)[nH]1)Nc1ccc(F)cc1`, the “hERG current change (%, negative = inhibition) at 1uM” value is 3.15%.

`Cc1ccc2c(c1)c1c(n2CC(O)Cn2ccnc2C)C(=O)CCC1` (stereo not shown): the “hERG current change (%, negative = inhibition) at 1uM” value is on record as -5.14%. With `CCCCOc1ccccc1Cn1c(=O)oc2ccccc21`, the “hERG current change (%, negative = inhibition) at 1uM” value was 9.79%. The same measure for `O=C(Cc1coc(-c2ccc(F)cc2)n1)Nc1ccccc1`: 5.7%; for `O=C(NCc1ccc2c(c1)OCO2)c1ccc(N2C(=O)C3CCCCC3C2=O)cc1` (stereo not shown): -13.9%. As for `Cc1oc(-c2ccc3c(c2)OCCO3)cc1C(=O)NC(Cc1ccccc1)C(=O)O` (stereo not shown), the “hERG current change (%, negative = inhibition) at 1uM” value came to 1.88%.

Turning to `CCOC(=O)COn1c(=O)c(=O)n(OC)c2ccccc21`, the “hERG current change (%, negative = inhibition) at 1uM” value was 15.2%. The same measure for `O=C(Nc1cc(C(=O)N2CCCC2)ccc1N1CCCC1)c1ccccc1F`: -82.8%; for `CC(C)Cn1c(SCC(=O)Nc2ccc3[nH]c(=O)[nH]c3c2)nc2ccccc2c1=O`: 14.2%. On to `CCSc1nnc2nc(C)cc(C)n12`, for which the “hERG current change (%, negative = inhibition) at 1uM” value is on record as 8.24%.

Consider `Br.N=c1n(CCN2CCCCC2)c2ccccc2n1CC(=O)c1ccc(Cl)c(Cl)c1`, for which the “hERG current change (%, negative = inhibition) at 1uM” value is listed as -14.7%. `COc1ccc(NC(=O)c2ccccc2OCc2ccc(F)cc2)c(OC)c1`: the “hERG current change (%, negative = inhibition) at 1uM” value was determined as 9.05%.

On to `Cc1cc(C(=O)N/N=C/c2ccncc2)c2ccccc2n1`, for which the “hERG current change (%, negative = inhibition) at 1uM” value is reported as 12.4%. The same measure for `O=C(COC(=O)c1cc(S(=O)(=O)NCc2ccccc2)ccc1O)NCc1ccccc1`: 9.94%. In the case of `COc1ccc(C(c2c(C)[nH][nH]c2=O)c2c(C)[nH][nH]c2=O)cc1Br`, the “hERG current change (%, negative = inhibition) at 1uM” value came to 8.93%. The same measure for `Oc1ccc(/C=N/NP(=S)(c2ccccc2)c2ccccc2)cc1O`: 2.29%; for `Cc1ccc(Oc2nsnc2N2CCOCC2)cc1`: 3.27%. Turning to `CC(C)c1ccc(/C=C/c2[nH]c(=O)[nH]c(=O)c2[N+](=O)[O-])cc1`, the “hERG current change (%, negative = inhibition) at 1uM” value stood at 10.8%. As to `C=CCNC(=S)N/N=C(\C)c1cccc(OC)c1`, the “hERG current change (%, negative = inhibition) at 1uM” value stood at 1.34%. The same measure for `CN(C)CCCNC(=O)c1cc(C(=O)Cc2ccc(Cl)cc2)c[nH]1`: -5.69%. The same measure for `O=S(=O)(c1ccc2ccccc2c1)N1CCN(C(=S)Nc2ccccc2F)CC1`: 2.6%. As to `O=C(N/N=C/c1ccccn1)c1cc(-c2ccccc2Cl)n[nH]1`, the “hERG current change (%, negative = inhibition) at 1uM” value stood at 15.5%. Regarding `CN1CCCN(C(=O)c2cc(=O)[nH]c3ccccc23)c2nc3ccccc3nc21`, the “hERG current change (%, negative = inhibition) at 1uM” value is -3.46%. The same measure for `Cc1oc(C(C)(C)C)cc1C(=O)Nc1cccc(/C=C/C(=O)O)c1`: -0.0917%; for `N#Cc1c(NC(=O)C(=O)NCCCN2CCOCC2)sc2c1CCC2`: 12.8%.
